Source: paper PMC4666396
These are yes or no findings as the source states them, for the method shown. For some assays here: Binding seen in cells or lysates may run through a third protein. Some results given as binding are weak or reduced against the parent protein; the word gives no strength. For some assays here: Sequences can lack the tags named with a protein.

T1: Splicing factor 1 (SF1) (human (endogenous in HeLa)) (UniProt Q15637)
T1 sequence: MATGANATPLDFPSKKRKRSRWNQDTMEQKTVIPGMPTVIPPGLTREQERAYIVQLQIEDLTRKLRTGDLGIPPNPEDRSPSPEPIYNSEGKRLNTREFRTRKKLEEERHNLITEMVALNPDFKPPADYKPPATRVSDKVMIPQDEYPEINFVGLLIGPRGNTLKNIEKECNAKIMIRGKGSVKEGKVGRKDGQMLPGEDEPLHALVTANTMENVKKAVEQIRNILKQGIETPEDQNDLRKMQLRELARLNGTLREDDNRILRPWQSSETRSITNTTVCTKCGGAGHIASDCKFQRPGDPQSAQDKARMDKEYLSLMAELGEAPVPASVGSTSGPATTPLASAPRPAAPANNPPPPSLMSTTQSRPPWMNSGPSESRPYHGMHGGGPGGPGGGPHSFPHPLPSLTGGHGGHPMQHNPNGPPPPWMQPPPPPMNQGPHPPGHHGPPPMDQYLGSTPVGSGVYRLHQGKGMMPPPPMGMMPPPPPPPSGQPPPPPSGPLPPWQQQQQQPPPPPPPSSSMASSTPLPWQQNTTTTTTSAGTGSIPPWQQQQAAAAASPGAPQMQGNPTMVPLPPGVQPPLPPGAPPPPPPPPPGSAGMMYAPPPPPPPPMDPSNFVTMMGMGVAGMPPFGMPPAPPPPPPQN

T2: Splicing factor 1 (SF1) (human (endogenous in HeLa)), Q15637
T2 chain: T1 sequence

T3: GST-CHERP-SURP (UniProt Q8IWX8)
T3 sequence: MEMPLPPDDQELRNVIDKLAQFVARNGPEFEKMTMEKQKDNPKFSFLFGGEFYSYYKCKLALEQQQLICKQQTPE

T4: GST-SF3a120-SURP1 (UniProt Q15459)
T4 sequence: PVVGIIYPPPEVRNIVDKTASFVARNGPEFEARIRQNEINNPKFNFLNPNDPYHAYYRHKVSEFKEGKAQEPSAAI

B1: calcium homoeostasis endoplasmic reticulum protein (CHERP) (protein, UniProt Q8IWX8 1-916)
chain: MEMPLPPDDQELRNVIDKLAQFVARNGPEFEKMTMEKQKDNPKFSFLFGGEFYSYYKCKLALEQQQLICKQQTPELEPAATMPPLPQPPLAPAAPIPPAQGAPSMDELIQQSQWNLQQQEQHLLALRQEQVTAAVAHAVEQQMQKLLEETQLDMNEFDNLLQPIIDTCTKDAISAGKNWMFSNAKSPPHCELMAGHLRNRITADGAHFELRLHLIYLINDVLHHCQRKQARELLAALQKVVVPIYCTSFLAVEEDKQQKIARLLQLWEKNGYFDDSIIQQLQSPALGLGQYQATLINEYSSVVQPVQLAFQQQIQTLKTQHEEFVTSLAQQQQQQQQQQQQLQMPQMEAEVKATPPPPAPPPAPAPAPAIPPTTQPDDSKPPIQMPGSSEYEAPGGVQDPAAAGPRGPGPHDQIPPNKPPWFDQPHPVAPWGQQQPPEQPPYPHHQGGPPHCPPWNNSHEGMWGEQRGDPGWNGQRDAPWNNQPDAAWNSQFEGPWNSQHEQPPWGGGQREPPFRMQRPPHFRGPFPPHQQHPQFNQPPHPHNFNRFPPRFMQDDFPPRHPFERPPYPHRFDYPQGDFPAEMGPPHHHPGHRMPHPGINEHPPWAGPQHPDFGPPPHGFNGQPPHMRRQGPPHINHDDPSLVPNVPYFDLPAGLMAPLVKLEDHEYKPLDPKDIRLPPPMPPSERLLAAVEAFYSPPSHDRPRNSEGWEQNGLYEFFRAKMRARRRKGQEKRNSGPSRSRSRSKSRGRSSSRSNSRSSKSSGSYSRSRSRSCSRSYSRSRSRSRSRSRSSRSRSRSQSRSRSKSYSPGRRRRSRSRSPTPPSSAGLGSNSAPPIPDSRLGEENKGHQMLVKMGWSGSGGLGAKEQGIQDPIKGGDVRDKWDQYKGVGVALDDPYENYRRNKSYSFIARMKARDECK
B2: suppressor of white-apricot homolog (SFSWAP), Q12872 1-951 (protein)
chain: MYGASGGRAKPERKSGAKEEAGPGGAGGGGSRVELLVFGYACKLFRDDERALAQEQGQHLIPWMGDHKILIDRYDGRGHLHDLSEYDAEYSTWNRDYQLSEEEARIEALCDEERYLALHTDLLEEEARQEEEYKRLSEALAEDGSYNAVGFTYGSDYYDPSEPTEEEEPSKQREKNEAENLEENEEPFVAPLGLSVPSDVELPPTAKMHAIIERTASFVCRQGAQFEIMLKAKQARNSQFDFLRFDHYLNPYYKFIQKAMKEGRYTVLAENKSDEKKKSGVSSDNEDDDDEEDGNYLHPSLFASKKCNRLEELMKPLKVVDPDHPLAALVRKAQADSSTPTPHNADGAPVQPSQVEYTADSTVAAMYYSYYMLPDGTYCLAPPPPGIDVTTYYSTLPAGVTVSNSPGVTTTAPPPPGTTPLPPPTTAETSSGATSTTTTTSALAPVAAIIPPPPDVQPVIDKLAEYVARNGLKFETSVRAKNDQRFEFLQPWHQYNAYYEFKKQFFLQKEGGDSMQAVSAPEEAPTDSAPEKPSDAGEDGAPEDAAEVGARAGSGGKKEASSSKTVPDGKLVKASFAPISFAIKAKENDLLPLEKNRVKLDDDSDDDEESKEGQESSSSAANTNPAVAPPCVVVEEKKPQLTQEELEAKQAKQKLEDRLAAAAREKLAQASKESKEKQLQAERKRKAALFLQTLKNPLPEAEAGKIEESPFSVEESSTTPCPLLTGGRPLPTLEVKPPDRPSSKSKDPPREEEKEKKKKKHKKRSRTRSRSPKYHSSSKSRSRSHSKAKHSLPSAYRTVRRSRSRSRSPRRRAHSPERRREERSVPTAYRVSRSPGASRKRTRSRSPHEKKKKRRSRSRTKSKARSQSVSPSKQAAPRPAAPAAHSAHSASVSPVESRGSSQERSRGVSQEKEAQISSAIVSSVQSKITQDLMAKVRAMLAASKNLQTSAS
B3: His6-MBP-SF1 127–302 (domain or fragment, UniProt Q15637 127-302)
chain: ADYKPPATRVSDKVMIPQDEYPEINFVGLLIGPRGNTLKNIEKECNAKIMIRGKGSVKEGKVGRKDGQMLPGEDEPLHALVTANTMENVKKAVEQIRNILKQGIETPEDQNDLRKMQLRELARLNGTLREDDNRILRPWQSSETRSITNTTVCTKCGGAGHIASDCKFQRPGDPQS
B4: His6-MBP-SF1-C370 Δ306–326 (domain or fragment, UniProt Q15637)
chain: MATGANATPLDFPSKKRKRSRWNQDTMEQKTVIPGMPTVIPPGLTREQERAYIVQLQIEDLTRKLRTGDLGIPPNPEDRSPSPEPIYNSEGKRLNTREFRTRKKLEEERHNLITEMVALNPDFKPPADYKPPATRVSDKVMIPQDEYPEINFVGLLIGPRGNTLKNIEKECNAKIMIRGKGSVKEGKVGRKDGQMLPGEDEPLHALVTANTMENVKKAVEQIRNILKQGIETPEDQNDLRKMQLRELARLNGTLREDDNRILRPWQSSETRSITNTTVCTKCGGAGHIASDCKFQRPGDPQSAQDGTASVGSTSGPATTPLASAPRPAAPANNPPPPSLMSTTQSRPPWMN
B5: His6-SF1-C315 (domain or fragment, UniProt Q15637 1-315)
chain: MATGANATPLDFPSKKRKRSRWNQDTMEQKTVIPGMPTVIPPGLTREQERAYIVQLQIEDLTRKLRTGDLGIPPNPEDRSPSPEPIYNSEGKRLNTREFRTRKKLEEERHNLITEMVALNPDFKPPADYKPPATRVSDKVMIPQDEYPEINFVGLLIGPRGNTLKNIEKECNAKIMIRGKGSVKEGKVGRKDGQMLPGEDEPLHALVTANTMENVKKAVEQIRNILKQGIETPEDQNDLRKMQLRELARLNGTLREDDNRILRPWQSSETRSITNTTVCTKCGGAGHIASDCKFQRPGDPQSAQDKARMDKEYLS
B6: His6-SF1-C302 (domain or fragment, UniProt Q15637 1-302)
chain: MATGANATPLDFPSKKRKRSRWNQDTMEQKTVIPGMPTVIPPGLTREQERAYIVQLQIEDLTRKLRTGDLGIPPNPEDRSPSPEPIYNSEGKRLNTREFRTRKKLEEERHNLITEMVALNPDFKPPADYKPPATRVSDKVMIPQDEYPEINFVGLLIGPRGNTLKNIEKECNAKIMIRGKGSVKEGKVGRKDGQMLPGEDEPLHALVTANTMENVKKAVEQIRNILKQGIETPEDQNDLRKMQLRELARLNGTLREDDNRILRPWQSSETRSITNTTVCTKCGGAGHIASDCKFQRPGDPQS

Each binder was assayed against T1, Splicing factor 1 (SF1) (human (endogenous in HeLa)) (assay: co-IP; anti-SF1 on Dynabeads Protein G; RNase A-treated HeLa cell nuclear extract, 1 h 4°C; washes 50 mM Tris-HCl pH 7.5, 100 mM NaCl, 0.05% NP-40, 0.5 mM DTT; western blot; control mouse IgG). Details: not given.

Row | binding | Binder
1 | binds | B1

Molecular target: T2, Splicing factor 1 (SF1) (human …)
Experiment: as above
Details: remark: other sources report otherwise

Row | binding | Binder
2 | no binding | B2

What follows are binders tested against T3, GST-CHERP-SURP (assay: pull-down; GST fusion proteins on glutathione-agarose; His6- or His6-MBP-tagged SF1 proteins in two-fold molar excess; NETN (20 mM Tris-HCl pH 8.0, 50 mM NaCl, 0.5% NP-40, 0.5 mM EDTA), 45 min 4°C; with or without RNase A; western blot with anti-His6; both purified). Details: not given.

Row | binding | Binder
3 | binds weakly | QRPGDPQSAQDKARMDKEYLSLMAELGEAPVPASVGSTSGP (domain or fragment, UniProt Q15637 295-335) [His6-MBP-SF1 295–335]
4 | no binding | QDKARMDKEYLSLMAELGEAPVP (domain or fragment, UniProt Q15637 304-326) [His6-MBP-SF1 304–326]
5 | no binding | B3
6 | no binding | B4
7 | binds weakly | B5
8 | no binding | B6

The binders below were run against T4, GST-SF3a120-SURP1 in the same assay as above. Details: not given.

Row | binding | Binder
9 | binds weakly | QRPGDPQSAQDKARMDKEYLSLMAELGEAPVPASVGSTSGP (domain or fragment, UniProt Q15637 295-335) [His6-MBP-SF1 295–335]
10 | no binding | QDKARMDKEYLSLMAELGEAPVP (domain or fragment, UniProt Q15637 304-326) [His6-MBP-SF1 304–326]
11 | no binding | B3
12 | no binding | B4
13 | binds weakly | B5
14 | no binding | B6
